± gives the standard deviation of the averaged measurements. This is one part of the list.
Test system: PfAP2-LT AP2 domain (GST-tagged)
Assay: gcPBM binding intensity (ln(normalized median fluorescence intensity)); higher = stronger DNA binding
Method in brief: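 Probes on an Agilent 4 × 180k array were primer-extended, double-stranded and 36 bp long, taken from intergenic genomic regions, with negative controls added. GST-tagged P. falciparum DNA-binding domains from E. coli, about 25 μg on average, were applied to the array for 1 h in 1× PBS containing 1% milk, 0.2 mg/ml BSA, 0.5% salmon testes DNA and 0.03% Triton X-100. Binding intensity, obtained after Alexa488 anti-GST antibody detection and a 488 nm scan, is the highest Masliner-normalised natural-log median intensity across replicate spots of either probe orientation.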

Sequence | gcPBM binding intensity (ln)
TCCCACTGTTATATTGAAAAAAAAAAAAAAAAAAAA [TGCATGCA_negctrl_site288] | 8.2 ± 0.23
ATATTCTTGTTTAATACACACTGTAGTATTATATAT [CACACA_site4400] | 9.08 ± 0.41
TAATGAGCGCTTGTAGTGCATTATATTCAAAAATAT | 8.72 ± 0.48
AGAAAAAAACAACATGCACACGCACCCACAAAAAAA [CACACA_site7908] | 9.51 ± 0.28
AGATAAAATATATATGCACACACATATATATTTCAT [CACACA_site9183] | 9.23 ± 0.33
TAATTATTTAAAAAGAGTACATTTTTTTTTTTTTTT [XGTACX_site1060] | 8.15 ± 0.4
ATAATTATTTAATATATATATATTATTTCGAATGTT [GTGCAC_negctrl_site688] | 8.87 ± 0.4
ATTCTATATAAATATACACACATATATAAAATACAT [CACACA_site2293] | 8.93 ± 0.38
TTAATAATTAATATATGTACTGATAAATAACATATA [XGTACX_site3966] | 8.49 ± 0.28
AATGTACGTTTTATAACACACACACTAATAAAAAAA [CACACA_site9286] | 9.29 ± 0.25
CCACATTAAAAAAAAACACACATATATTATAGATAT [CACACA_site6662] | 8.83 ± 0.4
ATCTTCAAAAATATTAGTACACATGTATCATGAATT [XGTACX_site3872] | 8.8 ± 0.46
TAGATACATACACGCACACACATATATATATATATA [CACACA_site12] | 10.11 ± 0.035
CACTAAAATAGACACACACACACACGGATATAAATA [CACACA_site7873] | 10.3 ± 0.29
CTTAAATTTAAGTTCACACATATTGGTCATTTATAT [CACACA_site5006] | 8.89 ± 0.45
TTTATTTGTAACGGTTGTACTTGTATATCATTATGA [XGTACX_site4281] | 8.74 ± 0.45
TAGTGATATAATTATGTGCACTTAATACAGGTCGAT | 9.06 ± 0.39
GATATTTTTTTCGAAAGTACAAAAAAAAATATTTCC [XGTACX_site4389] | 8.33 ± 0.37
AAAATTAAAAATAACACACACATATATATATTTATA [CACACA_site2776] | 9.21 ± 0.25
ATATATATACCAAGTAGTACATTCTACAACTAATGT [XGTACX_site8653] | 8.79 ± 0.4
ATGTATATATATATATGTACTAATTAGTAGTTTACG [XGTACX_site6272] | 9.07 ± 0.45
TGTATGTATAAAAACGCATGTATGTATTTTACAATA [TGCATGCA_site767] | 8.73 ± 0.43
TACTAAGAATTAATATAACAAAATAAAAAAAAAAAA [XGTACX_negctrl_site346] | 8.4 ± 0.45

Sequence | gcPBM binding intensity (ln)
ATACAGATATATAATACACACATAAATGTAACATTT [CACACA_site5864] | 9.23 ± 0.4
TATATAAATATATATGTACACACATATACATGTTGA [CACACA_site9022] | 8.97 ± 0.38
ATAATATCTTTATGTGTGCACATATATATATATATA | 9.82 ± 0.099
TTGTTTATTTTTTATTACTATAAAGATGTTATATAT [CACACA_negctrl_site1506] | 8.65 ± 0.47
TAAATAATTTATAAGTGTACTATTATTGCACGAATA [XGTACX_site7715] | 8.54 ± 0.46
AAAAAAAACAGACACACACACATAAATATATATAAA [CACACA_site148] | 9.74 ± 0.36
CATTAGGTCTTTTGTACATGCAAGTGTGTGCGTAAA [TGCATGCA_site255] | 9.3 ± 0.47
ATGATTTTTTCTGTATGTACATAAAAATAAAATTCT [XGTACX_site5698] | 8.47 ± 0.39
TTTTTTTTTTTTTTTGCACACTTGATTTGAGCTTAT [CACACA_site4042] | 8.78 ± 0.54
TTTTTTTTTGTTTACACACCCAAATCACATACATAT [CACACA_site4052] | 9.11 ± 0.49
AAAATAAAAATACACATTTTTTTTTTTTTTTTTTTT [TGCATGCA_negctrl_site515] | 8.83 ± 0.18
GAAAATAGCTAAAATACACACAATTAAAAGTTATTA [CACACA_site7614] | 8.99 ± 0.58
TTACAAAAATGTGGTTGTACACAAACAAAAAAAATA [XGTACX_site8506] | 8.88 ± 0.57
TATAAATAGATATATACACACATGAAAATAAATAAA [CACACA_site7228] | 9.05 ± 0.42
AAATATAATATATGCACACATACATACATATATATA [CACACA_site104] | 9.04 ± 0.32
TTTTCCTTTTTGGAATGTACACATATATATTAAATG [XGTACX_site4700] | 8.58 ± 0.33
TAATTAAATATTTTCCTACAATTAATAAGAAAAGGA [XGTACX_negctrl_site565] | 8.26 ± 0.44
AAGAATAATAACAAATGTACTTATATAAAGTATTAT [XGTACX_site2336] | 8.73 ± 0.56
CAGCTCTTAAAAATTACACACATATACGCATATATA [CACACA_site3267] | 9.03 ± 0.3
TATTAAGAAGAAAATTCACACATTTGTACCTCTCTT [CACACA_site4822] | 8.86 ± 0.47
TTCTTTAAAATAAATTGTACTAACATATATATATAT [XGTACX_site6045] | 8.62 ± 0.42
AACTATATATAACTAGTGCAAAGACAATATTTTAAA | 8.74 ± 0.45
TATAATATAATATATGCACACAAATATGTATATATG [CACACA_site8664] | 9.02 ± 0.3

Sequence | gcPBM binding intensity (ln)
AAAATTTAATATAATGCACACATAAAAAAAAAAAAT [CACACA_site8425] | 9.06 ± 0.5
TTTGATATAGAAAGAGCATGCAAGTTAGATAAAATA [TGCATGCA_site470] | 8.93 ± 0.42
TATATATTAATATACACACACACATATATATATATA [CACACA_site1608] | 9.79 ± 0.29
AATAAATTATTATGTACACACATAATAGTATATATA [CACACA_site1820] | 8.9 ± 0.47
AAAACATACCTATATACACACATATAAATATAAATA [CACACA_site6956] | 9.18 ± 0.47
TCATGTTTTACAAAAACACACAAATGAATATAAACA [CACACA_site4775] | 8.74 ± 0.46
TATATACATAGACACCCACACACAAAAAAAAAAAAA [CACACA_site8186] | 9.43 ± 0.42
TCGAATTTGGAAAGAAGTACATGAAGCCAACATATG [XGTACX_site5222] | 8.73 ± 0.38
AATAAATAAAAATTATGTACATATATAAAAAATACA [XGTACX_site8581] | 8.79 ± 0.36
AAAACAAAATAGGGAACACACACATGTCAATATATA [CACACA_site8834] | 9.46 ± 0.37
TTTCAAACTGTTCTCACACACGAAATTAGAAATGAA [CACACA_site4509] | 8.87 ± 0.38
TTTTTTTTTTTTTGGTTCACACTGAAAAGAGAGATA [GTGCAC_negctrl_site439] | 8.29 ± 0.25
CAATCATGGTTTTACACACACATGCATGTGAAAATT [CACACA_site4870] | 9.29 ± 0.23
TTTTGTTATTTTGAAGTGCACTTTCCACTTAATATA | 8.91 ± 0.44
ATACCTATTTGATGAGTGCATTATCCAATATATGTA | 8.77 ± 0.39
TTTATTATATATAAAAGTACACATTGTAAGGAAACA [XGTACX_site8560] | 8.77 ± 0.36
AAATATATATGTATATGTACTTATTTATTTAAAAGG [XGTACX_site4093] | 8.48 ± 0.39
TTTTCTGTATAAACTTGTACATATATTTCCTTGTTT [XGTACX_site5745] | 8.81 ± 0.47
AAAAGTGATGAGACAAGTACTAACATATTATTATTA [XGTACX_site1533] | 8.89 ± 0.47
ATGTTTTACAAAAACACACAAATGAATATAAACATA [CACACA_site6667] | 8.82 ± 0.37
AAATAAAATATCAATTAAAACAGAATTGAATTTTTA [CACACA_negctrl_site181] | 8.44 ± 0.47
ATATGTTCTACAAAAAAGATGTCGATTTATTTTCTT [CACACA_negctrl_site1179] | 8.56 ± 0.49
ACACATATGCATATATGTACATAATATATTAAACTT [XGTACX_site5975] | 9.23 ± 0.33

Sequence | gcPBM binding intensity (ln)
TAAAAAATAAATATATGTACGCAATAAATGTGTTAA [XGTACX_site4043] | 8.71 ± 0.45
ATTTAAGATTTAATCACACACATATATATTATATAC [CACACA_site2907] | 9.05 ± 0.36
ATAATATATGTATATCCACACACATATATATATATA [CACACA_site8471] | 9.81 ± 0.042
GCAAATGTGAAAACGTGTACACATTTTATTTAATTT [XGTACX_site8000] | 8.9 ± 0.45
TATTTGTAAATCGATACACACATATATATTAATATA [CACACA_site196] | 8.98 ± 0.23
AAATGTAGATATTATCGTACACATATATTTATATAT [XGTACX_site6326] | 8.85 ± 0.35
AAAAAAAAAAAAAAATGTACAAATAGTAGTTACAGA [XGTACX_site2531] | 8.79 ± 0.48
AACATGTTAAAATAAACACACAGCTAAGGTTTTTTT [CACACA_site157] | 8.9 ± 0.39
ATAGTAATGCATAAATATATATTATATATATATATA [XGTACX_negctrl_site576] | 9.22 ± 0.37
CTATTGTTAAATATAATACACACGTTTTTAAAAATA [CACACA_site2183] | 8.55 ± 0.36
GTATATATTTTGTATTCATTTGTCACATATAATAGA [CACACA_negctrl_site506] | 8.79 ± 0.43
CAAACACCCAAACACACACACACATACATACATACA [CACACA_site8044] | 9.98 ± 0.15
TTTTTTTTTTTTTGTGTGCACCTTATTTTTTTGTAT [GTGCAC_site9617] | 9.43 ± 0.47
AAAAAAAAAAAAAATTCACACACATATAAAAAATTA [CACACA_site8140] | 8.99 ± 0.43
TAAATTAAGAATTTTACACACATTAAATAAAAAAAA [CACACA_site3638] | 8.6 ± 0.54
AAATTAGGAAATTGCACACAAAAAAAAACATATTAT [CACACA_site4074] | 9.16 ± 0.45
TTTTTTTATTTTTTTATAAATGTATTTCTATTATTT [CACACA_negctrl_site1562] | 8.55 ± 0.59
ATTATATATACATAATGTACATATATATATTACCTT [XGTACX_site7624] | 8.88 ± 0.3
TATAAAATGACTATATATAATATTAAAAAAAAAAAA [TGCATGCA_negctrl_site387] | 8.37 ± 0.52
AAAATTTCTTTTTTTTGTACATATATAATAATATAT [XGTACX_site7107] | 8.6 ± 0.39

Reference: the supplement of paper PMC11417369
